Measured values as given in PubChem BioAssay AID504832 (National Center for Advancing Translational Sciences (NCATS), 2011).
About 18,000 (5.8%) of roughly 310,000 compounds were called active. This list was built around the results that the source calls inconclusive (neither active nor inactive); the mix of calls is not that of the screen. The call rests on the fitted dose curve; in most records, active means well fitted inhibition curve with a large enough effect; inconclusive means small, poorly fitted or top-dose-only effect, or another doubt; inactive means no such curve, though single readings can be large or run the other way. No potency is given beside an inconclusive call; the fits are too rough.

assay: Primary qHTS for delayed death inhibitors of the malarial parasite plastid, 48 hour incubation; conditions: P. falciparum luciferase growth in erythrocytes; series mostly up to 28.7 µM; activity change, negative = inhibition: at the top concentration
In short: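 Parasite viability was followed by luminescence of a genomically integrated firefly luciferase. Cultures held 0.1% parasitemia at 2% hematocrit (final), incubated under 5% CO2 at 37 C.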
On the % scale 0 is the no-effect control and ±100 the full control effect; potency means the concentration at half of the fitted maximal effect; tags describe the fitted curve by direction and shape.

SMILES	Potency	activity change, negative = inhibition
Cc1ccc(NC(=S)N2C3CCCC2CC(NC(=O)C2CC2)C3)cc1C (stereo not drawn)	inconclusive [inhibitor, partial curve, poor fit]	
Cc1ccccc1-n1c(SCC(=O)N/N=C/C=C/c2ccccc2[N+](=O)[O-])nc2ccccc2c1=O	inconclusive [inhibitor, full curve]	
O=c1c2ccccc2oc2nc(-c3ccco3)n(Cc3ccccc3)c(=O)c12	inconclusive [inhibitor, single point]	
O=C(c1cc(COc2ccc(F)cc2Cl)on1)N1CCSCC1		inactive: 106%
CN1CCN(C(=O)c2cc(=O)c3cc(Cl)cc(Cl)c3o2)CC1		inactive: 33%
Cc1ccc(-n2c(Cc3cccn3C)nnc2SCC(=O)N2CCc3ccccc32)cc1	inconclusive [inhibitor, single point]	
Cn1cccc1Cc1nnc(SCC(=O)N2CCCc3ccccc32)n1-c1ccc(F)cc1	inconclusive [inhibitor, single point]	
O=C(Nc1ccccn1)C1CCN(S(=O)(=O)c2ccc3c(c2)OCCCO3)CC1	inconclusive [inhibitor, single point]	
Cc1ccccc1-c1noc(-c2ccccc2C(=O)NCC2CCCO2)n1 (stereo not drawn)		inactive: 37.1%
O=[N+]([O-])c1ccc2nc(CN3CCCCC3)[nH]c2c1		inactive: -3.66%
Cc1ccc(-c2csc(N(CCO)CCCn3c(C(F)(F)F)nc4cc(C(F)(F)F)ccc43)n2)cc1	inconclusive [inhibitor, partial curve]	
Cc1cc2nc3c(=O)[nH]c(=O)nc-3n(CC(O)C(O)C(O)CO)c2cc1C (stereo not drawn)	active: 13.5 µM	
O=S(=O)(c1ccccc1)c1cnc2ccccc2c1	inconclusive [inhibitor, partial curve, poor fit]	
Cc1cc(C)c2nc(N3CCC(C(=O)N4CCCC4)CC3)sc2c1	active: 8.28 µM	
COc1ccc(OC)c(CN2CCN(C(=O)c3ccc(NS(=O)(=O)c4cccc([N+](=O)[O-])c4)cc3)CC2)c1	inconclusive [inhibitor, single point]	
Cc1ccc(C(=O)Nc2ccc(S(=O)(=O)N3CCc4ccccc4C3)cc2)o1	active: 13.1 µM	
O=c1c(Cl)c(NCC2CCCO2)cnn1C12CC3CC(CC(C3)C1)C2 (stereo not drawn)	inconclusive [inhibitor, single point]	
COc1ccc([N+](=O)[O-])cc1NC(=O)C1CCCN1S(=O)(=O)c1cccs1 (stereo not drawn)	inconclusive [inhibitor, single point]	
CCCCCCn1c(=O)c(C(=O)Nc2ncccc2C)c(O)c2ccccc21	inconclusive [inhibitor, partial curve, poor fit]	
CCn1nnc2cc(C(=O)NCC(c3ccccc3OC)N(C)C)ccc21 (stereo not drawn)		inactive: -26.3%
CCn1nnnc1SCC(=O)N1c2ccccc2CCc2ccccc21	inconclusive [inhibitor, single point]	
O=C(Nc1nnc(COc2ccc(Br)cc2)s1)c1ccco1		inactive: 11.1%
CCN1CCN(S(=O)(=O)c2cc(OCC(=O)NC3CCCCC3)c(C)cc2Cl)CC1	active: 2.08 µM	

SMILES	Potency	activity change, negative = inhibition
COc1cc(OC)cc(-c2nnc(SCC(=O)N(Cc3ccccc3)C(C)(C)C)o2)c1	inconclusive [inhibitor, partial curve, poor fit]	
COc1cc2c(cc1OC)C(c1ccccc1O)NCC2 (stereo not drawn)	inconclusive [inhibitor, single point]	
COc1cccc(C#Cc2c(C=O)n(C)c3ccccc23)c1	active: 13.1 µM	
Fc1ccc(/C=N/Nc2ncnc3nc[nH]c23)cc1F	inconclusive [inhibitor, single point]	
CC1CCCCC12NC(=O)N(CC(=O)N1CCN(S(=O)(=O)/C=C/c3ccccc3)CC1)C2=O (stereo not drawn)	active: 10.4 µM	
COc1ccc(-c2n[nH]c(=S)n2-c2ccc3c(c2)OCCO3)cc1OC	inconclusive [inhibitor, single point]	
COC(=O)CSc1nnc(-c2ccc(S(=O)(=O)NCc3ccccc3Cl)cc2)o1	inconclusive [inhibitor, partial curve, poor fit]	
Cc1cccc(NCc2ccccc2)c1		inactive: 11.6%
COc1cccc(/C=N/NC(=S)NC2CC3CC2C2C=CCC32)c1O (stereo not drawn)	active: 2.33 µM	
Cc1onc(-c2ccccc2)c1C(=O)Nc1ccc2c(C)cc(=O)oc2c1	inconclusive [inhibitor, single point]	
CCC(C)c1ccc(NC(=O)NCc2cccnc2)cc1 (stereo not drawn)		inactive: -7.46%
O=C(N/N=C/c1c(O)ccc2ccccc12)c1ccc[n+](CCO)c1	active: 9.28 µM	
O=C(CN1C(=O)COc2ccc(S(=O)(=O)N3CCCCC3)cc21)NCc1ccc(Cl)cc1	inconclusive [inhibitor, partial curve, poor fit]	
COc1ccc(NC(=O)c2ccc(S(=O)(=O)C(F)F)cc2)c(OC)c1		inactive: 11.8%
COc1ccc(-c2csc(=Nc3c(C)n(C)n(-c4ccccc4)c3=O)n2C(C)(C)C)cc1	inconclusive [inhibitor, partial curve, poor fit]	
CCN(CC)CC(O)COC(c1ccccc1)c1ccccc1 (stereo not drawn)	inconclusive [inhibitor, single point]	
CCOC(=O)c1ccc2[nH]c(C)cc(=O)c2c1	inconclusive [inhibitor, partial curve]	
C=CCn1c(NC(=O)c2ccco2)nc2ccccc21	active: 11.7 µM	
COc1ccc(OCCCC(=O)Nc2cccc([N+](=O)[O-])c2C)cc1		inactive: -7.11%
COc1ccc(N2C(=O)CC(Sc3n[nH]c(-c4cccc(C)c4)n3)C2=O)cc1 (stereo not drawn)	inconclusive [inhibitor, partial curve, poor fit]	
COc1ccc(NC(=O)C2CCCN2S(=O)(=O)c2cccs2)c([N+](=O)[O-])c1 (stereo not drawn)	inconclusive [inhibitor, single point]	
CCCCN(C)CCN1C(=O)C2C(C(=O)Nc3ccc(Cl)cc3)C3C=CC2(O3)C1C(=O)NC1CCCCC1 (stereo not drawn)	active: 10.4 µM	
COC(=O)c1cc(C(=O)N2CCN(C(=O)c3ccco3)CC2)cc([N+](=O)[O-])c1	inconclusive [inhibitor, partial curve, poor fit]	

SMILES	Potency	activity change, negative = inhibition
CC(=O)N1N=C(c2ccccc2)CC1c1cccc([N+](=O)[O-])c1 (stereo not drawn)	inconclusive [inhibitor, single point]	
CCN(CC)CCNC(=O)CCN1N=C(c2ccccc2)CCC1=O		inactive: 22.6%
Cc1cc(NC(=O)c2cc3cccc([N+](=O)[O-])c3[nH]2)ccc1F	inconclusive [inhibitor, full curve, poor fit]	
C/C(=N\Nc1nc(C(C)(C)C)cs1)c1ccc(O)cc1	inconclusive [inhibitor, single point]	
COc1ccc(N(C(=O)c2ccco2)C(C(=O)NC2CCCC2)c2ccco2)cc1OC (stereo not drawn)	inconclusive [inhibitor, single point]	
COC(=O)[C@@H]1C[C@@]2(O)[C@H](O)[C@H](O)[C@H](O)C[C@H]2N1Cc1ccc(-c2ccccc2)cc1		inactive: 51.6%
CCO[C@@H]1OC(C(=O)N2CCN(Cc3ccccc3)CC2)=C[C@H](c2csc3ccccc23)[C@H]1CCCO	inconclusive [inhibitor, partial curve, poor fit]	
COC(=O)C1=C(Nc2ccc(C)cc2)C=C(C)C(C(=O)OC)C1c1ccc(OC)cc1 (stereo not drawn)	active: 4.15 µM	
CCCCn1c(O)c(/C=C/C=C/C=Nc2ccccc2)sc1=S	inconclusive [inhibitor, full curve, poor fit]	
CC1CCN(Cc2c(C(=O)N/N=C/c3ccc(C(F)(F)F)cc3)nnn2-c2nonc2N)CC1	inconclusive [inhibitor, single point]	
COc1ccc(C(=O)NC(=S)Nc2ccc(N3CCN(C(C)=O)CC3)cc2)cc1[N+](=O)[O-]	inconclusive [inhibitor, single point]	
COc1ccc([C@H]2CC(=O)C=C(c3cccc(C(F)(F)F)c3)C2)cc1		inactive: 25.1%
CC1Cc2cc(S(=O)(=O)N3CCN(c4cccc(Cl)c4)CC3)ccc2N1C(=O)C1CC1 (stereo not drawn)	inconclusive [inhibitor, single point]	
Cc1ccc(S(=O)(=O)N(C)C)cc1NC(=O)COC(=O)/C(=C/c1ccc(F)cc1)c1cccs1		inactive: 1.87%
C/C(=N\NC(=O)c1c(Br)c(C)nn1C)c1cccc(NC(=O)C2CCC2)c1	inconclusive [inhibitor, single point]	
N#Cc1ccc(-c2csc(NC(=O)/C=C/c3cccs3)n2)cc1	inconclusive [inhibitor, partial curve]	
COc1cc2c(C#CCCCO)c(-c3ccc(C#N)cc3)oc(=O)c2cc1OC		inactive: 7.25%
CCOC(=O)CSc1nc2cc(C(F)(F)F)cnc2n1C		inactive: 0.238%
CCC(C)NC(=O)c1cc2c(=O)n3cccc(C)c3nc2s1 (stereo not drawn)		inactive: -23.5%
CCN(CC(=O)NCc1ccc(Cl)cc1)C(=O)CSCC(=O)Nc1ccc(OC)cc1	inconclusive [inhibitor, single point]	
CCC(NC(=O)CSc1nnnn1C1CC1)c1ccc(Br)cc1 (stereo not drawn)	inconclusive [inhibitor, single point]	
COc1ccc(CNC(=S)Nc2ccc(F)c(Cl)c2)cc1OC	inconclusive [inhibitor, partial curve]	
